Reference: PubChem BioAssay (NCATS)
Inconclusive means that the source gave no clear call. Such entries were picked first, then a sample of the others. For some assays here: Potencies of inconclusive entries are doubtful fits and often do not repeat. Active and inactive are the calls of the source. Unless noted, calls come from the whole dose curve; as a rule, active = well fitted curve in the direction sought with a large enough effect; inconclusive = small, poorly fitted or top-dose-only effect, or another doubt; inactive = no such curve, though single readings can be large; an effect the other way counts as inactive or inconclusive.

target: Tumor necrosis factor (Homo sapiens) (UniProt P01375); experiment: qHTS assay to identify small molecules that stimulate Tumor Necrosis Factor-alpha (TNF-alpha) secretion (AID 651757; active = well fitted curve in the direction sought with a large enough effect in the signal ratio; inconclusive = small, poorly fitted or top-dose-only effect, or a change in a side signal; inactive = no such curve, though single readings can be large or run the other way; the % refers to the signal ratio; note: 0% is about no effect); conditions: Human cells, HTRF 665/615 ratio; activation (TNF-alpha secretion): at 92.2 µM (top of the series)
Sequence of UniProt P01375 (P01375 whole entry, looked up): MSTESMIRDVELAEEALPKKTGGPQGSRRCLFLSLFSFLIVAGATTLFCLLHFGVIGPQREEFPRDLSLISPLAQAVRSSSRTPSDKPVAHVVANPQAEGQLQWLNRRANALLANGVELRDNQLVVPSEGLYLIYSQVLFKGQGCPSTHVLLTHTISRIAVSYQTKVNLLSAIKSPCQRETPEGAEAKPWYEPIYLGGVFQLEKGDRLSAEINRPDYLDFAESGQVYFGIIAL
Method in brief: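 Human monocytic THP-1 cells are plated, treated with compound and held at 37 C for 17 hrs. Labeled anti-TNF-alpha antibody mixture is then added; after 3 hr at room temperature, TR-FRET signal reports secreted TNF-alpha.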
Tags give direction and shape of the fitted curve.

Compound	activation (TNF-alpha secretion)
CCCCCCCCCCCCC1CO1 (stereo unspecified)	inactive: 0.811%
COC(=O)c1ccccc1	inactive: -0.0018%
S=C([S-])NCCNC(=S)[S-].[Zn+2]	inactive: 0.843%
Fc1ccccc1	inactive: -0.475%
O=C1OC(=O)c2cc([N+](=O)[O-])ccc21	inconclusive: 0.015%

tested on: not listed separately; experiment: qHTS assay to identify small molecules that stimulate interleukin-8 (IL-8) secretion (AID 651758; active = well fitted activation curve with a large enough effect in the signal ratio; inconclusive = small, poorly fitted or top-dose-only effect, or effect the other way, or a change in a side signal; the % refers to the signal ratio; note: potency is the fitted concentration of half-maximal effect; for activation: 0% is about no effect); conditions: HTRF ratio (665/615); activation: at 92.2 µM (top of the series)
Method in brief: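 Quantitative HTS in THP-1 monocytic cells at 2000 cells per well, with 16 hrs compound incubation at 37 C. IL-8 in the medium was then quantified by HTRF immunoassay, read after 1-3 hrs at room temperature.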

Compound	Potency	activation
O=[N+]([O-])c1cccc(Cl)c1	inconclusive: 66.8 µM [falling, partial curve, poor fit]	
O=Cc1ccc(Cl)cc1		inactive: 15.8%
O=[N+]([O-])c1ccc(CCO)cc1		inconclusive: 0.933%
CCCCCCCCC		inactive: 1.69%
CCNC(=S)NCC		inconclusive: 14.1%
COC(=O)c1ccccc1	inconclusive: 75 µM [activator, single point]	
CC1CCCO1 (stereo unspecified)		inconclusive: 4.8%
C=CC(=O)OCCCC		inconclusive: 15.6%
CCC(O)C(C)(C)C (stereo unspecified)		inconclusive: 12.4%
S=C([S-])NCCNC(=S)[S-].[Zn+2]		inconclusive: -5.27%
Fc1ccccc1		inconclusive: 1.32%
O=C1OC(=O)c2cc([N+](=O)[O-])ccc21		inactive: 12.9%
Cc1cccc(C(=O)O)c1		inconclusive: 1.7%
c1ccsc1		inactive: -0.0891%
CC1=CC(C)(C)Nc2ccccc21	inconclusive: 66.8 µM [activator, partial curve] and inactive	

tested on: not listed separately; experiment: qHTS assay for small molecule agonists of the antioxidant response element (ARE) signaling pathway measured by Nrf2-dependant transcriptional activity (AID 720636; active = well fitted curve in the direction sought with a large enough effect in the repeat runs; inconclusive = weak or mixed curves; inactive = no such curve, though single readings can be large; an effect the other way counts as inactive or inconclusive; note: potency is the fitted concentration of half-maximal effect;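 for activation: HepG2 cells with an ARE-driven luciferase reporter; % of control where 0% means no effect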); conditions: ARE-luc HepG2, Nrf2 luciferase reporter, 16 h; series mostly up to 92.4 µM; activation: at the top concentration
Method in brief: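 ONE-Glo luminescence, read 30 min after reagent addition at room temperature, reflected ARE reporter activity in HepG2 cells that had been incubated with compound for 16 hr at 37 C in 1% dialyzed FBS.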

Compound	Potency	activation
Cc1ccc(S(=O)(=O)N=C=O)cc1	inconclusive: 5.45 µM [activator, partial curve, poor fit]	
C=CC(=O)OCCOc1ccccc1	inconclusive: 77 µM [activator, partial curve, poor fit]	
CS/C(=N\O)C(=O)N(C)C		inactive: -0.289%

tested on: not listed separately; experiment: qHTS assay for cell viability of the p53RE-bla HCT-116 cell line (AID 743292); conditions: p53RE-bla HCT-116 viability, ATP luminescence, 16 h; series mostly up to 95 µM; activity change, negative = cytotoxicity: at the top concentration; note: nearly all actives have a fitted effect of over 55% in size; note: potency is the fitted concentration of half-maximal effect; for activity change, negative = cytotoxicity: % is set by controls: 0 for no effect and ±100 for the full control effect
Method in brief: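 After plating at 4,000 cells per well and a 5 h rest at 37 C, HCT-116 cells carrying p53RE-bla received test chemicals in DMSO. Sixteen hours later at 37 C, CellTiter-Glo was added and luminescence recorded following 30 min at room temperature.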

Compound	activity change, negative = cytotoxicity	Potency
CCCCCCCCC	inactive: -4.28%	
Cc1cccc(C(=O)O)c1	inactive: -12%	
CC/C(=C(\c1ccc(O)cc1)c1ccc(OCCN(C)C)cc1)c1ccccc1		active: 39.8 µM
